The full ranking holds about 81,000 sequences; the median of “one-hybrid fitness for binding NBS DNA” is about -0.1, and the highest 2% start at about 0.36. The list shows a part of the results.
B1: Caulobacter ParB omega fusion; a variant is named by its letters at X, in order, B8GW30 (parent)
chain: MESVVVGEPGMSEGRRGLGRGLSALLGEVDAAPAQAPGEQLGGSREAPIEILQRNPDQPRRTFREEDLEDLSNSIREKGVLQPILVRPSPDTAGEYQIVAGERAWRAAQRAGLKTVPIMVRELDDLAVLEIGIIENVQRADLNVLEEALSYKVLMEKFERTQENIAQTIGKSXSHVANXMRLLXLPDEVQSYLVSGELTAXHARAIAAAADPVALAKQIIEGGLSVRETEALARKAPNLSAGKSKGGRPPRVKDTDTQALESDLSSVLGLDVSIDHRGSTGTLTITYATLEQLDDLCNRLTRGI

Variants of: B1
Test: one-hybrid fitness for binding NBS DNA (the Noc-binding site; scaled: cognate 1, non-cognate 0); higher = stronger binding
Settings: with NBS DNA site
Summary of the method: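 In E. coli USO, a HIS3 reporter with its site placed 19 bp from the promoter was used to select Caulobacter ParB variants randomised at four specificity codons. Growth lasted 48 hours at 37°C on histidine-free M9 containing 0.1 mM IPTG and 5 mM 3-AT. Fitness was taken as the log change in variant-to-wild-type read ratio from Illumina sequencing of pre- and post-selection plasmids, rescaled between the non-cognate and cognate sites.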

| Variant | one-hybrid fitness for binding NBS DNA |
| --- | --- |
| DAGA | ≤ 0.2 |
| RIEL | ≤ 0.2 |
| LQSS | ≤ 0.2 |
| HVQD | ≤ 0.2 |
| INYL | ≤ 0.2 |
| EDVS | ≤ 0.2 |
| HGSR | ≤ 0.2 |
| PHND | ≤ 0.2 |
| YRNS | ≤ 0.2 |
| SIAT | ≤ 0.2 |
| HTAL | ≤ 0.2 |
| GGNW | ≤ 0.2 |
| CIDR | ≤ 0.2 |
| GWLT | ≤ 0.2 |
| SWWR | ≤ 0.2 |
| FNEG | ≤ 0.2 |
| VPPM | ≤ 0.2 |
| NATL | ≤ 0.2 |
| SATH | ≤ 0.2 |
| QNNF | ≤ 0.2 |
| QADF | ≤ 0.2 |
| SYYR | ≤ 0.2 |
| SGPN | ≤ 0.2 |
| VRCT | 0.212 |

| Variant | one-hybrid fitness for binding NBS DNA |
| --- | --- |
| PEHA | ≤ 0.2 |
| EDSC | ≤ 0.2 |
| QQLQ | ≤ 0.2 |
| QNEQ | ≤ 0.2 |
| LHYN | ≤ 0.2 |
| DWLT | ≤ 0.2 |
| FAHL | ≤ 0.2 |
| IITR | ≤ 0.2 |
| KVKL | ≤ 0.2 |
| RRLF | ≤ 0.2 |
| KGSG | ≤ 0.2 |
| PNHY | ≤ 0.2 |
| KLYR | ≤ 0.2 |
| RWHP | ≤ 0.2 |
| HAAE | ≤ 0.2 |
| MEGR | ≤ 0.2 |
| LMFG | ≤ 0.2 |
| GLGS | ≤ 0.2 |
| CSDT | ≤ 0.2 |
| PQSF | ≤ 0.2 |
| KWAL | ≤ 0.2 |
| HSCY | ≤ 0.2 |
| RQLY | ≤ 0.2 |
| PADC | ≤ 0.2 |

| Variant | one-hybrid fitness for binding NBS DNA |
| --- | --- |
| QRCQ | 0.382 |
| RRKN | 0.646 |
| HLGA | ≤ 0.2 |
| AGDV | ≤ 0.2 |
| PDCS | ≤ 0.2 |
| TPQA | ≤ 0.2 |
| HTPI | ≤ 0.2 |
| HAQD | ≤ 0.2 |
| YCAT | ≤ 0.2 |
| AESL | ≤ 0.2 |
| INRG | ≤ 0.2 |
| PGRV | ≤ 0.2 |
| QHCT | 0.294 |
| WLVP | ≤ 0.2 |
| VRNW | ≤ 0.2 |
| QSVA | ≤ 0.2 |
| NQPK | ≤ 0.2 |
| LTII | ≤ 0.2 |
| HNPD | ≤ 0.2 |
| GGSI | ≤ 0.2 |
| TKSD | ≤ 0.2 |
| LVPH | ≤ 0.2 |
| HALD | ≤ 0.2 |
| CLNG | ≤ 0.2 |

| Variant | one-hybrid fitness for binding NBS DNA |
| --- | --- |
| TDPD | ≤ 0.2 |
| NYSL | ≤ 0.2 |
| STNL | ≤ 0.2 |
| SCSG | ≤ 0.2 |
| QGTK | ≤ 0.2 |
| NLTV | ≤ 0.2 |
| FLII | ≤ 0.2 |
| GILL | ≤ 0.2 |
| YTRR | 0.255 |
| HTLR | ≤ 0.2 |
| QYVA | ≤ 0.2 |
| SHTS | ≤ 0.2 |
| RRLC | 0.301 |
| RPQP | ≤ 0.2 |
| AGAA | ≤ 0.2 |
| PYHN | ≤ 0.2 |
| ATVA | ≤ 0.2 |
| SGKT | ≤ 0.2 |
| PRIR | ≤ 0.2 |
| RDSC | ≤ 0.2 |
| THQV | ≤ 0.2 |
| HKPW | ≤ 0.2 |
| TIRS | ≤ 0.2 |
| MTAL | ≤ 0.2 |

| Variant | one-hybrid fitness for binding NBS DNA |
| --- | --- |
| SACI | ≤ 0.2 |
| HPGY | ≤ 0.2 |
| ANSN | ≤ 0.2 |
| SHIE | ≤ 0.2 |
| TKMS | ≤ 0.2 |
| CGFS | ≤ 0.2 |
| LRSA | ≤ 0.2 |
| HTTA | ≤ 0.2 |
| NVPS | ≤ 0.2 |
| KMMT | ≤ 0.2 |
| HQKS | ≤ 0.2 |
| IHHR | ≤ 0.2 |
| ICTG | ≤ 0.2 |
| TPIT | ≤ 0.2 |
| VRRR | 0.624 |
| WWMS | ≤ 0.2 |
| HHFR | ≤ 0.2 |
| QAAM | ≤ 0.2 |
| GLLT | ≤ 0.2 |
| QEYC | ≤ 0.2 |
| LAMN | ≤ 0.2 |
| QLAT | 0.396 |
| CSEP | ≤ 0.2 |
| QVPY | ≤ 0.2 |

| Variant | one-hybrid fitness for binding NBS DNA |
| --- | --- |
| HSSG | ≤ 0.2 |
| NERG | ≤ 0.2 |
| QRQR | 0.987 |
| FLPT | ≤ 0.2 |
| SPLM | ≤ 0.2 |
| EMRY | ≤ 0.2 |
| WQWG | ≤ 0.2 |
| TLVY | ≤ 0.2 |
| TRTH | ≤ 0.2 |
| TEQR | ≤ 0.2 |
| MSFM | ≤ 0.2 |
| HRIF | ≤ 0.2 |
| VNGR | ≤ 0.2 |
| RGEN | ≤ 0.2 |
| NCHA | ≤ 0.2 |
| KVPC | ≤ 0.2 |
| IGNR | ≤ 0.2 |
| QTRE | 0.405 |
| GLKH | ≤ 0.2 |
| LAAY | ≤ 0.2 |
| TPVG | ≤ 0.2 |
| NTND | ≤ 0.2 |
| FRWG | ≤ 0.2 |
| SLPT | ≤ 0.2 |

| Variant | one-hybrid fitness for binding NBS DNA |
| --- | --- |
| ISAS | ≤ 0.2 |
| AIDR | ≤ 0.2 |
| LAFC | ≤ 0.2 |
| ALHG | ≤ 0.2 |
| YTDT | ≤ 0.2 |
| PDYC | ≤ 0.2 |
| AVSR | ≤ 0.2 |
| WQAV | ≤ 0.2 |
| NCPM | ≤ 0.2 |
| EHTN | ≤ 0.2 |
| RKMV | ≤ 0.2 |
| YMKR | ≤ 0.2 |
| ISIM | ≤ 0.2 |
| EAKS | ≤ 0.2 |
| KEQG | ≤ 0.2 |
| KVGS | ≤ 0.2 |
| NMKS | ≤ 0.2 |
| RFEY | ≤ 0.2 |
| CCLD | ≤ 0.2 |
| LAMT | ≤ 0.2 |
| KHAD | ≤ 0.2 |
| RNYD | ≤ 0.2 |
| STDV | ≤ 0.2 |
| QTWE | ≤ 0.2 |

| Variant | one-hybrid fitness for binding NBS DNA |
| --- | --- |
| QGRM | ≤ 0.2 |
| RIMN | ≤ 0.2 |
| QHTL | ≤ 0.2 |
| SARR | ≤ 0.2 |
| GRWR | ≤ 0.2 |
| ADMG | ≤ 0.2 |
| RHTH | ≤ 0.2 |
| TWVG | ≤ 0.2 |
| SPCG | ≤ 0.2 |
| IFPS | ≤ 0.2 |
| GGWG | ≤ 0.2 |
| EHNI | ≤ 0.2 |
| RHVM | ≤ 0.2 |
| LSLP | ≤ 0.2 |
| DDVN | ≤ 0.2 |
| YTNV | ≤ 0.2 |
| DTSL | ≤ 0.2 |
| GARN | ≤ 0.2 |
| TLWR | ≤ 0.2 |
| QGSY | ≤ 0.2 |
| PHYE | ≤ 0.2 |
| NTVC | ≤ 0.2 |
| HHHT | ≤ 0.2 |
| PHQA | ≤ 0.2 |

| Variant | one-hybrid fitness for binding NBS DNA |
| --- | --- |
| YYHS | ≤ 0.2 |
| AFRC | ≤ 0.2 |
| ITAG | ≤ 0.2 |
| MQRN | ≤ 0.2 |
| PNHN | ≤ 0.2 |
| QQAW | ≤ 0.2 |
| CFAY | ≤ 0.2 |
| ESQS | ≤ 0.2 |
| DACM | ≤ 0.2 |
| HDKY | ≤ 0.2 |
| HHTN | ≤ 0.2 |
| QISN | ≤ 0.2 |
| STTG | ≤ 0.2 |
| QCQE | ≤ 0.2 |
| AYFM | ≤ 0.2 |
| SFHY | ≤ 0.2 |
| VDPL | ≤ 0.2 |
| NLNV | ≤ 0.2 |
| TQGV | ≤ 0.2 |
| GKDR | ≤ 0.2 |
| YGSN | ≤ 0.2 |
| YSLD | ≤ 0.2 |
| SRIG | ≤ 0.2 |
| SGEL | ≤ 0.2 |

| Variant | one-hybrid fitness for binding NBS DNA |
| --- | --- |
| ARCI | ≤ 0.2 |
| PAPR | ≤ 0.2 |
| VAFG | ≤ 0.2 |
| WYNA | ≤ 0.2 |
| VDNR | ≤ 0.2 |
| WDAR | ≤ 0.2 |
| LYTE | ≤ 0.2 |
| AAMD | ≤ 0.2 |
| AAWQ | ≤ 0.2 |
| AGTC | ≤ 0.2 |
| QPRT | ≤ 0.2 |
| DYLY | ≤ 0.2 |
| TPER | ≤ 0.2 |
| HRKS | ≤ 0.2 |
| DKIS | ≤ 0.2 |
| GAVC | ≤ 0.2 |
| TVMM | ≤ 0.2 |
| WGYS | ≤ 0.2 |
| EVNA | ≤ 0.2 |
| LTNT | ≤ 0.2 |
| TSVR | ≤ 0.2 |
| YYQG | ≤ 0.2 |
| TFQG | ≤ 0.2 |
| CYSC | ≤ 0.2 |

| Variant | one-hybrid fitness for binding NBS DNA |
| --- | --- |
| WKNS | ≤ 0.2 |
| YGRV | ≤ 0.2 |
| QTGI | ≤ 0.2 |
| PFCG | ≤ 0.2 |
| DTAW | ≤ 0.2 |
| DAMN | ≤ 0.2 |
| AFHG | ≤ 0.2 |
| GTRR | 0.251 |
| QMYM | ≤ 0.2 |
| QPDN | ≤ 0.2 |
| TNPT | ≤ 0.2 |
| QGMR | ≤ 0.2 |
| QLHV | ≤ 0.2 |
| CVAL | ≤ 0.2 |
| QSCM | ≤ 0.2 |
| RWKT | 0.272 |
| VKTP | ≤ 0.2 |
| KLEG | ≤ 0.2 |
| RRMQ | 0.253 |
| FTGL | ≤ 0.2 |
| RIDM | ≤ 0.2 |
| DVTQ | ≤ 0.2 |
| DNGS | ≤ 0.2 |
| VVMM | ≤ 0.2 |

| Variant | one-hybrid fitness for binding NBS DNA |
| --- | --- |
| PPKF | ≤ 0.2 |
| PVGN | ≤ 0.2 |
| PNHA | ≤ 0.2 |
| QVWE | ≤ 0.2 |
| RTTQ | ≤ 0.2 |
| QQGP | ≤ 0.2 |
| WLYI | ≤ 0.2 |
| VNQC | ≤ 0.2 |
| TAAV | ≤ 0.2 |
| KPYC | ≤ 0.2 |
| EYRS | ≤ 0.2 |
| WPEN | ≤ 0.2 |
| EAWS | ≤ 0.2 |
| QPLI | ≤ 0.2 |
| MLSV | ≤ 0.2 |
| LYTH | ≤ 0.2 |
| MALR | ≤ 0.2 |
| IINF | ≤ 0.2 |
| IRKN | ≤ 0.2 |
| LFTK | ≤ 0.2 |
| GAMF | ≤ 0.2 |
| RNYN | ≤ 0.2 |
| RNVN | ≤ 0.2 |
| HRTM | ≤ 0.2 |

| Variant | one-hybrid fitness for binding NBS DNA |
| --- | --- |
| LPVK | ≤ 0.2 |
| HTYF | ≤ 0.2 |
| DRMF | ≤ 0.2 |
| QMPQ | ≤ 0.2 |
| PYSC | ≤ 0.2 |
| PTPF | ≤ 0.2 |
| YHFC | ≤ 0.2 |
| TDYR | ≤ 0.2 |
| ILGT | ≤ 0.2 |
| GGQR | ≤ 0.2 |
| WVLC | ≤ 0.2 |
| VERR | ≤ 0.2 |
| QHPG | ≤ 0.2 |
| PTTR | ≤ 0.2 |
| KALT | ≤ 0.2 |
| NWSN | ≤ 0.2 |
| TRCC | ≤ 0.2 |
| GDRT | ≤ 0.2 |

From a collection of fitness landscapes (doi:10.1016/j.celrep.2020.107928)
